SMILES strings stand for the structures. Hit rate of the full screen: of about 45,000 compounds, about 65 (0.1%) were called active. Calls follow the shape of the dose curve; as a rule, active = well fitted activation curve with a large enough effect; inconclusive = small, poorly fitted or top-dose-only effect; inactive = no such curve, though single readings can be large or run the other way. Some of the results follow.

This note sets out measurements from PubChem BioAssay AID1159614 (National Center for Advancing Translational Sciences (NCATS), 2016).

Sequence of UniProt P54803 (P54803 whole entry, looked up): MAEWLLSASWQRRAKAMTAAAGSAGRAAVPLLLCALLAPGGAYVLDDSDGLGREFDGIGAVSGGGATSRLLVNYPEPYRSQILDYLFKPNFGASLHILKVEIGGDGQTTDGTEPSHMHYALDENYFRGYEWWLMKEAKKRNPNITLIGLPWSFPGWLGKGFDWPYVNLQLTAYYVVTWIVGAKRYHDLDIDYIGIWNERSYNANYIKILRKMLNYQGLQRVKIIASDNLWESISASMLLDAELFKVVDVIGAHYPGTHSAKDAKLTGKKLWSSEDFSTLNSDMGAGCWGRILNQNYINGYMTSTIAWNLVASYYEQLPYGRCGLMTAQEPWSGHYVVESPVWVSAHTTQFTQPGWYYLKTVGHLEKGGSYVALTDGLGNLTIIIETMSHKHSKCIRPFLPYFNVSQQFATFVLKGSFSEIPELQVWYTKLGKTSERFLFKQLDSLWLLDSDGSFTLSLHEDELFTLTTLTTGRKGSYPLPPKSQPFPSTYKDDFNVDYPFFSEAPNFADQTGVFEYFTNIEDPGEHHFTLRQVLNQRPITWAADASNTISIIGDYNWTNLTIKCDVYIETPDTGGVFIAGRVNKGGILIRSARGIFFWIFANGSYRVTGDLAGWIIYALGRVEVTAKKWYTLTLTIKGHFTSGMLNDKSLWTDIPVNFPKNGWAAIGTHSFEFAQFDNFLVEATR

For the assay, the target named is Galactocerebrosidase (Homo sapiens) (UniProt P54803). The assay can be described thus: A Novel Cell-Based Assay to Identify Small Molecules for B -Galactocerebrosidase. Also: 0% is about no effect; nearly all actives have a fitted effect of over 65% in size. The settings on record: 145M-Twi-hGALC-G270D cells (Twitcher mouse brain line with human GALC G270D), HMU-beta-Gal fluorescence, 48 h; series mostly up to 57.5 µM; activation: at the top concentration. In short, it runs like this:
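Fluorogenic HMU-b-Gal hydrolysis (0.1 mM final, pH 5.2 citrate-phosphate with 1 mg/mL sodium taurocholate; carbonate stop buffer) measures mutant GALC activity after compound treatment of live 145M-Twi Twitcher brain cells stably carrying human GALC-G270D, with wild-type GALC line alongside; activation sought.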
On to `CCOC(=O)C1CCCN(S(=O)(=O)c2cc(Br)cc3c2N(C(=O)CC)CC3)C1` (stereo not drawn), for which the “activation” value was inactive: -4.48%.

As to `CN1CCC(=C2c3ccccc3CC(=O)c3sccc32)CC1`, the “activation” value is inactive: -11.9%. In the case of `CC(=O)C(Sc1nc(-c2ccccc2Cl)nc2c1c(=O)n(C)c(=O)n2C)C(=O)N(C)C` (stereo not drawn) it was inactive: -12.5%; in that of `CCCCN(CC)C(=O)Cn1cc2c(n1)-c1c(oc(C(=O)N3CCCC3)c1C)CC2`, inactive: -8.6%; in that of `COc1cc(NC(=O)C2CCN(S(=O)(=O)c3c(C)noc3/C=C/c3c(C)cc(C)cc3C)CC2)cc(OC)c1`, inactive: -13.3%.

With `COc1ccc(OC)c(CNc2ncc(-c3ccc(Cl)cc3)n2C)c1`, the “activation” value was inactive: -11.3%.

Regarding `Cc1cccc(C)c1NC(=O)c1cc2sccc2n1Cc1ccc(F)cc1`, the “activation” value is inactive: -4.62%. On to `CCN(Cc1ccccc1)S(=O)(=O)c1ccc(F)c(C(=O)Nc2ccc(C(C)C)cc2)c1`, for which the “activation” value is inactive: -12.8%. As for `CCOC(=O)c1cccc(NC(=O)NC2COc3ccccc3C2)c1` (stereo not drawn), the “activation” value was inactive: -16.8%. In the case of `Cc1ccc(CNC(=O)c2cn(C)c3ccc(S(=O)(=O)N4CCC(C)CC4)cc3c2=O)cc1` it was inactive: -18%.

Consider `COc1cccc(C(=O)c2cn(CC(=O)Nc3ccc4c(c3)OCCO4)c3nc(C)ccc3c2=O)c1`, for which the “activation” value was inactive: -9.93%. The value for `Cc1ccc(CNC(=O)CCCn2nc(C)n3c(cc4sccc43)c2=O)cc1` was inactive: -10%; that for `CCC(=O)N1CCc2cc(S(=O)(=O)NC(CC(C)C)C(=O)NCc3cccc(OC)c3)ccc21` (stereo not drawn) was inactive: -21.2%. In the case of `CCOc1ccc(CC(=O)NCc2ccc3c(c2)CCN3C(=O)c2ccc(F)cc2)cc1OCC`, the “activation” value is inactive: -17.7%.

With `CN1CCCC(CC2c3ccccc3Sc3ccccc32)C1` (stereo not drawn), the “activation” value was inactive: -5.83%. The value for `Cc1ccc(Sc2c(C)nn(-c3ccccc3)c2OC(=O)CC(C)C)cc1` was inactive: -9.92%. The value for `COc1ccccc1N1CCN(CC(O)COc2cccc3ccccc23)CC1` (stereo not drawn) was inactive: 2.25%; that for `O=C(NCCCc1ccccc1)c1ccc2c(c1)sc1nc(-c3ccc(F)cc3)cn12` was inactive: -20.1%. In the case of `Cc1ccccc1CN1C(=O)c2ccccc2Sc2ccc(C(=O)NCCCN3CCOCC3)cc21` it was inactive: -2.48%. As to `Cc1cc(C)cc(NC(=O)C2CCCN2S(=O)(=O)c2ccc3c(c2)C(C)(C)C(=O)N3C)c1` (stereo not drawn), the “activation” value is inactive: -1.5%. `COc1ccccc1NC(=O)c1oc2ccccc2c1NC(=O)c1c(F)cccc1F`: the “activation” value was inactive: -20.2%.

For the compound `CCOC(=O)C1(C)C=C(Nc2ccc(OC)cc2)C(=O)N1c1ccccc1` (stereo not drawn), the “activation” value is inactive: -16.3%. In the case of `CCOC(=O)c1ccc(NC(=O)c2ccc3c(c2)c(C)c(C)n3Cc2ccc(F)cc2)cc1` it was inactive: -0.683%; in that of `Cc1cc(C)c(Cn2c3ccccc3c3cnn(CC(=O)NC4CCCCCC4)c(=O)c32)c(C)c1`, inactive: -11.5%. `COc1ccc(Cn2cc(C(=O)c3ccc(Cl)cc3)c(=O)c3cc4c(cc32)OCO4)cc1`: the “activation” value is inactive: -13.9%. In the case of `CCc1ccc(Nc2nn3c(=O)c4cc5c(cc4nc3s2)OCO5)cc1` it was inactive: 2.79%. The value for `COc1cc(OC)cc(C(=O)Nc2ccc(S(=O)(=O)N3CCCCC3c3cccnc3)cc2)c1` (stereo not drawn) was inactive: 18.8%. For `O=C(Nc1cccc(Cl)c1Cl)c1cc(S(=O)(=O)N2CCC3(CC2)OCCO3)ccc1F`, the “activation” value was inactive: -17.4%. `Cc1ccc(-n2nc3c(N4CCC(C(=O)N5CCC(C)CC5)CC4)nnc(C)c3c2C)cc1`: the “activation” value is inactive: -1.75%. In the case of `CC(C)(Sc1cc(C(C)(C)C)c(O)c(C(C)(C)C)c1)Sc1cc(C(C)(C)C)c(O)c(C(C)(C)C)c1` it was inactive: -19.1%. In the case of `O=C(CSc1oc(-c2ccccc2)nc1S(=O)(=O)c1ccc(Br)cc1)NC1CCCCC1` it was inactive: -11.6%; in that of `Cc1ccc(C2=Nc3ccccc3N(CC(=O)NCc3ccc(Cl)cc3)C(=O)C2)cc1C`, inactive: -13.5%; in that of `COc1cccc(-c2ccc3c(N)c(C(=O)Nc4ccc(Cl)cc4F)sc3n2)c1`, inactive: -5.27%. On to `COc1ccc(OC)c(NC(=O)Cc2c(C(=O)O)[nH]c3ccc(Cl)cc23)c1`, for which the “activation” value was inactive: -25.1%. In the case of `CCc1ccccc1NC(=O)Cc1ccc(-n2c(C)nc3cccnc32)cc1` it was inactive: -12.9%; in that of `CC(=O)Nc1nonc1-c1nnc(SCc2ccccc2C)n1C`, inactive: -8.5%; in that of `CCOc1nc(NC(=O)NS(=O)(=O)Oc2cccc(F)c2)nc(-c2ccccc2)n1`, inactive: -17.4%. The value for `COc1ccc(CNC(=O)c2ccc3c(c2)N(Cc2ccccc2F)C(=O)c2ccccc2S3=O)cc1` (stereo not drawn) was inactive: -12%; that for `CC(C)Cn1c(=O)c2sccc2n2c(CCCC(=O)NCC(C)c3ccccc3)nnc12` (stereo not drawn) was inactive: -14.4%; that for `O=C(NCCN1CCN(c2ccccc2F)CC1)C1COc2ccccc2C1` (stereo not drawn) was inactive: 3.79%. In the case of `Cc1ccc(NC(=O)c2cc3c(Cl)nc4ccc(C)cc4c3s2)c(Cl)c1` it was inactive: -9.88%; in that of `COc1ccc(NC(=O)CSc2nc3ccccc3n2CC(=O)N2CCCC(C)C2)cc1` (stereo not drawn), inactive: -12.8%. As for `Cc1cc(C)n(-c2nc3cc(Cl)c(Cl)cc3nc2Nc2ccc(F)cc2C)n1`, the “activation” value was inactive: -29.9%. The value for `Cc1cccc(C(=O)Nc2c(-c3ccc(F)cc3)nc3ccccn23)c1` was inactive: 12.5%; that for `CCn1c(=O)c2cc(C(=O)Nc3cc(C)c(Cl)cc3OC)sc2c2ccccc21` was inactive: -1.53%.

Regarding `Cc1ccc(C)c(N2CCN(C(=O)c3cc4c(=O)n(Cc5cccnc5)ccc4nc3C)CC2)c1`, the “activation” value was inactive: -19.9%.

Consider `O=C(c1ccc(Cl)cc1)N1CCCCC1CCN1CCOCC1` (stereo not drawn), for which the “activation” value was inactive: -0.676%.

`Cc1cccc(CSc2nc3cccnc3n2Cc2ccc(C(=O)NCc3cccs3)cc2)c1`: the “activation” value is inactive: -5.36%. Consider `CCOC(=O)c1sc(NC(=O)c2nc3ncccn3n2)c(C(=O)OC(C)C)c1C`, for which the “activation” value was inactive: -18.5%. The value for `CC(=O)N(Cc1cccnc1)c1nc2c(C)cc(C)cc2s1` was inactive: 5.74%.

Regarding `CCOc1ccccc1N1CC(c2nc3ccccc3n2CCOc2ccc(OC)cc2)CC1=O` (stereo not drawn), the “activation” value was inactive: -3%. The value for `COc1ccc(CNC(=O)c2cc(-c3cccs3)nc3ccccc23)c(OC)c1` was inactive: 3.26%.

Consider `Cc1ccc(NS(=O)(=O)c2ccc3[nH]c4c(c3c2)CCCC4)c(C)c1`, for which the “activation” value is inactive: 0.907%. In the case of `CC1CCc2c(sc3nnn(Cc4ccccc4)c(=O)c23)C1` (stereo not drawn) it was inactive: -13%. The value for `Cc1ccc(-c2nc3ccccn3c2Nc2c(C)cccc2C)o1` was inactive: -10.6%; that for `Cc1nnc(N2CCCC(C(=O)Nc3ccccc3C(F)(F)F)C2)c2nn(-c3ccccc3)c(C)c12` (stereo not drawn) was inactive: -9.08%. `O=C(Cn1ncc2c([nH]c3ccccc32)c1=O)Nc1cc(F)ccc1F`: the “activation” value was inactive: 9.59%. In the case of `Cc1cccc(N2CCN(C(=O)C3CCN(S(=O)(=O)c4c(C)noc4/C=C/c4ccccc4F)CC3)CC2)c1C` it was inactive: -0.21%. For `O=C(NCc1ccc2c(c1)OCO2)c1ccc2c(c1)N(Cc1cccc(Cl)c1)C(=O)c1ccccc1S2`, the “activation” value is inactive: -21.8%.

As to `Cc1ccc(C(=O)c2sc(Nc3ccccc3F)c(S(=O)(=O)c3ccccc3)c2N)c(C)c1`, the “activation” value is inactive: -17.6%. In the case of `COc1ccc(C(=O)N(Cc2sccc2C)C2CCS(=O)(=O)C2)cc1Cl` (stereo not drawn) it was inactive: -13.4%. Take `CCN1CCN(C(=O)c2ccc3c(c2)N(Cc2ccc(Cl)cc2)C(=O)c2ccccc2S3(=O)=O)CC1`: the “activation” value is inactive: -12.3%. The value for `Cc1cc(C)c(S(=O)(=O)Nc2cc(-c3cn4ccccc4n3)ccc2C)cc1C` was inactive: -10.9%; that for `O=C(NCc1ccc(F)cc1)c1ccc(CSc2nc3ccncc3n2Cc2ccc(F)cc2)cc1` was inactive: -11.4%.

Turning to `CCc1cccc(C)c1NS(=O)(=O)c1c(C(=O)N2CCCCCC2)c(C)n(C)c1C`, the “activation” value is inactive: -12.3%. Regarding `Cc1ccc(Cl)cc1N1CCN(C(=O)CN2C(=O)COc3ccc(S(=O)(=O)N4CCOCC4)cc32)CC1`, the “activation” value was inactive: -17.7%. In the case of `COc1ccc(Cl)cc1NC(=O)Cn1nnc2sc3c(c2c1=O)CCC(C(C)(C)C)C3` (stereo not drawn) it was inactive: 0.63%; in that of `Cc1cc(C)c(Cn2c3ccccc3c3cnn(CC(=O)NCCc4ccccc4)c(=O)c32)c(C)c1`, inactive: 8.01%. The value for `CCOC(=O)c1c(Nc2cccc(O)c2)nnc(-c2ccccc2)c1-c1ccccc1` was inactive: -41.9%; that for `O=C(Nc1nnc(S(=O)(=O)N2CCCCCC2)s1)c1ccc(Br)cc1` was inactive: -11.2%; that for `COc1c(Cl)cc(C(=O)Nc2cccc(-c3nc4ccccc4[nH]3)c2)cc1Cl` was inactive: -5.49%. In the case of `CC(=O)c1ccc(NC2=NS(=O)(=O)c3ccccc32)cc1` it was inactive: -31.9%; in that of `COc1ccc(CCNC(=O)c2ccc3c(c2)CCN3S(=O)(=O)c2ccc(Cl)cc2)cc1`, inactive: -8.49%; in that of `Cc1ccc(NC(=O)Cn2cc(S(=O)(=O)c3ccc(F)cc3)c(=O)c3cc4c(cc32)OCO4)cc1`, inactive: -15.9%. Regarding `Cc1ccc(NC(=O)CSc2nccn2C2CCCC2)cc1`, the “activation” value was inactive: -5.31%.

Take `COc1ccc(NC(=O)C2CCCN(S(=O)(=O)c3cn(C)cn3)C2)cc1Cl` (stereo not drawn): the “activation” value was inactive: -4.82%. In the case of `COCCNC(=O)Cn1c(=O)n(Cc2ccc(C(=O)NCCc3ccc(OC)c(OC)c3)cc2)c(=O)c2ccccc21` it was inactive: 23.7%; in that of `COc1cc(Cl)c(C)cc1NC(=O)CCCN1C(=O)C(c2ccccc2)Oc2cccnc21` (stereo not drawn), inactive: -27.7%; in that of `Cc1cccc(Oc2nc3ccccn3c(=O)c2/C=C(\C#N)c2nc3ccccc3s2)c1C`, inactive: -9.68%.

As for `COc1ccc(-n2c3c(c(=O)[nH]c2=O)C(NC(C)=O)(C(F)(F)F)C(=O)N3)cc1` (stereo not drawn), the “activation” value was inactive: -29.1%.

`CCOc1ccccc1C1CC(=O)NC(C)=C1C(=O)OC1CCCCCC1` (stereo not drawn): the “activation” value was inactive: -8.17%. The value for `CC(C)(C)C(=O)Cn1c(=O)n(CCCCCC(=O)NCc2ccc3c(c2)OCO3)c(=O)c2sccc21` was inactive: -13.7%. The value for `COc1ccc(OC)c(NC(=O)c2ccc(-c3nc(CSc4ccccc4)c(C)o3)cc2)c1` was inactive: -18.1%; that for `CSc1cccc(NS(=O)(=O)c2ccc3[nH]cc(C(=O)N4CCCC4)c(=O)c3c2)c1` was inactive: -8.99%; that for `COc1ccccc1CCNC(=O)c1ccc(NC(=O)N2CC(C)Sc3ccccc32)cc1` (stereo not drawn) was inactive: -6.58%. In the case of `CCCCn1cc(S(=O)(=O)c2ccc(CC)cc2)c(=O)c2cc(F)c(N3CCCC(C)C3)cc21` (stereo not drawn) it was inactive: -26%; in that of `Cc1ccc(C(=O)CSc2nc3cc(C(=O)NC4CCCC4)ccc3c(=O)n2CC2CCCO2)cc1` (stereo not drawn), inactive: -1.46%.

Regarding `COc1cc(OC)c(NC(=O)c2c(C)nn(-c3ccc(C)cc3)c2-n2cccc2)cc1Cl`, the “activation” value was inactive: 15%. For `COc1ccc(C(=O)NCCn2cc(SCC(=O)Nc3ccccc3)c3ccccc32)cc1OC`, the “activation” value was inactive: -31.2%. On to `Cc1ccc2nc(-c3ccc(Cl)c(NC(=O)c4cccnc4)c3)oc2c1`, for which the “activation” value was inactive: -6.17%. The value for `CN(C(=O)c1cc2c(=O)oc3ccccc3c2s1)c1ccc(F)cc1` was inactive: -14.5%; that for `CC(=O)N1CCCc2cc(S(=O)(=O)N3CCCCC3)ccc21` was inactive: -19%; that for `CCOc1ccccc1CNC(=O)c1cc2c(=O)n(Cc3ccccc3)ccc2nc1C` was inactive: 4.56%.
